Laboratory results: a collection of fitness landscapes (doi:10.1126/science.1257360)
The list shows a part of the results.

B1: PhoQ; a variant is named by its letters at X, in order, P23837 (parent)
chain: MKKLLRLFFPLSLRVRFLLATAAVVLVLSLAYGMVALIGYSVSFDKTTFRLLRGESNLFYTLAKWENNKLHVELPENIDKQSPTMTLIYDENGQLLWAQRDVPWLMKMIQPDWLKSNGFHEIEADVNDTSLLLSGDHSIQQQLQEVREDDDDAEMTHSVAVNVYPATSRMPKLTIVVVDTIPVELKSSYMVWSWFIYVLSANLLLVIPLLWVAAWWSLRPIEALAKEVRELEEHNRELLNPATTRELTSLVRNLNRLLKSERERYDKYRTTLTDLTHSLKTPLXXLQXXLRSLRSEKMSVSDAEPVMLEQISRISQQIGYYLHRASMRGGTLLSRELHPVAPLLDNLTSALNKVYQRKGVNISLDISPEISFVGEQNDFVEVMGNVLDNACKYCLEFVEISARQTDEHLYIVVEDDGPGIPLSKREVIFDRGQRVDTLRPGQGVGLAVAREITEQYEGKIVAGESMLGGARMEVIFGRQHSAPKDE

Variants of: B1
Experiment: enrichment ratio after two sorts for PhoP signalling (ratio (wild type AVST 3.29)); higher = more functional
Conditions: with PhoP (E. coli)

| Variant | enrichment ratio |
| --- | --- |
| TRNF | ≤ 0.25 |
| AKNC | ≤ 0.25 |
| GWNG | ≤ 0.25 |
| RFLK | ≤ 0.25 |
| PVMF | ≤ 0.25 |
| WSLR | ≤ 0.25 |
| PRAE | ≤ 0.25 |
| ANSS | 12.7 |
| NDCS | ≤ 0.25 |
| NKAG | ≤ 0.25 |
| DLNP | ≤ 0.25 |
| QPFY | ≤ 0.25 |
| EAVE | ≤ 0.25 |
| RFFI | ≤ 0.25 |
| TSCC | 17.3 |
| WVAW | ≤ 0.25 |
| LNEE | ≤ 0.25 |
| SLEW | ≤ 0.25 |
| KFRH | ≤ 0.25 |
| WECW | ≤ 0.25 |
| SPDF | ≤ 0.25 |
| WSKT | ≤ 0.25 |
| WKMN | ≤ 0.25 |
| TCIA | ≤ 0.25 |

| Variant | enrichment ratio |
| --- | --- |
| VAHI | ≤ 0.25 |
| ILWM | ≤ 0.25 |
| FTEN | ≤ 0.25 |
| YYDL | ≤ 0.25 |
| LQYA | ≤ 0.25 |
| YSHR | 1.38 |
| YIRS | ≤ 0.25 |
| TVYS | ≤ 0.25 |
| EYTR | ≤ 0.25 |
| PTYD | ≤ 0.25 |
| DVTP | ≤ 0.25 |
| FVKY | ≤ 0.25 |
| YQDC | ≤ 0.25 |
| FVIM | ≤ 0.25 |
| YLQG | ≤ 0.25 |
| MSIQ | ≤ 0.25 |
| ICNV | ≤ 0.25 |
| YLVC | 0.277 |
| SWTG | ≤ 0.25 |
| MDKM | ≤ 0.25 |
| TAIM | ≤ 0.25 |
| IQCH | ≤ 0.25 |
| FFNV | 1.49 |
| GFIW | ≤ 0.25 |

| Variant | enrichment ratio |
| --- | --- |
| RPYE | ≤ 0.25 |
| VLRD | ≤ 0.25 |
| HQMI | ≤ 0.25 |
| VMCF | ≤ 0.25 |
| TLFD | ≤ 0.25 |
| GKHL | ≤ 0.25 |
| KVFS | ≤ 0.25 |
| NDVG | ≤ 0.25 |
| EEVS | ≤ 0.25 |
| GEVL | 5.34 |
| IGRI | ≤ 0.25 |
| ILMM | ≤ 0.25 |
| NNSE | ≤ 0.25 |
| MFLS | ≤ 0.25 |
| MHGC | ≤ 0.25 |
| MCVK | ≤ 0.25 |
| MSRS | ≤ 0.25 |
| WHYP | ≤ 0.25 |
| IFTT | ≤ 0.25 |
| ERCM | ≤ 0.25 |
| DIVN | ≤ 0.25 |
| SVFR | 0.428 |
| KLFW | ≤ 0.25 |
| RIFQ | ≤ 0.25 |

| Variant | enrichment ratio |
| --- | --- |
| LWPK | ≤ 0.25 |
| LWQD | ≤ 0.25 |
| LSNH | ≤ 0.25 |
| WEVM | ≤ 0.25 |
| MDPC | 2.79 |
| QIKP | ≤ 0.25 |
| SAFE | ≤ 0.25 |
| HAER | ≤ 0.25 |
| TNEK | ≤ 0.25 |
| EDLA | ≤ 0.25 |
| VYTC | ≤ 0.25 |
| QSQM | ≤ 0.25 |
| FECP | ≤ 0.25 |
| PIQM | ≤ 0.25 |
| LVMW | ≤ 0.25 |
| EEIP | ≤ 0.25 |
| LHMF | ≤ 0.25 |
| MYSV | 0.337 |
| LMQS | ≤ 0.25 |
| LKDA | ≤ 0.25 |
| LQGL | ≤ 0.25 |
| VEKL | ≤ 0.25 |
| PGIF | ≤ 0.25 |
| WVTF | ≤ 0.25 |

| Variant | enrichment ratio |
| --- | --- |
| RLLN | ≤ 0.25 |
| VSPC | ≤ 0.25 |
| IQSR | ≤ 0.25 |
| KCYQ | ≤ 0.25 |
| IATM | ≤ 0.25 |
| YVPH | ≤ 0.25 |
| LQNM | ≤ 0.25 |
| IDEG | ≤ 0.25 |
| DNGR | ≤ 0.25 |
| LYYY | ≤ 0.25 |
| VESP | ≤ 0.25 |
| SVHA | ≤ 0.25 |
| MFWL | ≤ 0.25 |
| WADH | ≤ 0.25 |
| WACW | ≤ 0.25 |
| GSFL | ≤ 0.25 |
| RNVT | ≤ 0.25 |
| EQNQ | ≤ 0.25 |
| TCHC | 9.1 |
| HVQP | ≤ 0.25 |
| QRKA | ≤ 0.25 |
| QDRF | ≤ 0.25 |
| LDPF | ≤ 0.25 |
| WCQY | ≤ 0.25 |

| Variant | enrichment ratio |
| --- | --- |
| HCMV | ≤ 0.25 |
| ATKL | ≤ 0.25 |
| FRFS | ≤ 0.25 |
| LCNP | ≤ 0.25 |
| IGLR | ≤ 0.25 |
| DNHS | ≤ 0.25 |
| DLKT | ≤ 0.25 |
| INST | ≤ 0.25 |
| DTWY | ≤ 0.25 |
| SRLR | ≤ 0.25 |
| DNGT | ≤ 0.25 |
| RERP | ≤ 0.25 |
| VFQV | ≤ 0.25 |
| WVNK | ≤ 0.25 |
| DIRP | ≤ 0.25 |
| DVRY | ≤ 0.25 |
| DDAQ | ≤ 0.25 |
| RSWF | ≤ 0.25 |
| QMEF | ≤ 0.25 |
| FPPD | ≤ 0.25 |
| QPCD | ≤ 0.25 |
| EYQS | ≤ 0.25 |
| ILVT | ≤ 0.25 |
| WLCV | ≤ 0.25 |

| Variant | enrichment ratio |
| --- | --- |
| MHNH | 3.22 |
| TSTT | 15.1 |
| HWFC | ≤ 0.25 |
| NFPS | ≤ 0.25 |
| YIPA | ≤ 0.25 |
| EHCD | ≤ 0.25 |
| HCGR | ≤ 0.25 |
| YMVW | ≤ 0.25 |
| RIHE | ≤ 0.25 |
| RVMR | ≤ 0.25 |
| GHDC | ≤ 0.25 |
| RFVE | ≤ 0.25 |
| ERWP | ≤ 0.25 |
| QYQF | ≤ 0.25 |
| VQSV | ≤ 0.25 |
| SEIG | 13.1 |
| TAIV | ≤ 0.25 |
| IFFK | ≤ 0.25 |
| HGPG | ≤ 0.25 |
| QTRD | ≤ 0.25 |
| ESKI | ≤ 0.25 |
| YMLH | ≤ 0.25 |
| LQGQ | ≤ 0.25 |
| VLNP | ≤ 0.25 |

| Variant | enrichment ratio |
| --- | --- |
| QCNC | ≤ 0.25 |
| TYSV | 0.354 |
| WGII | ≤ 0.25 |
| FMSE | ≤ 0.25 |
| ESFQ | ≤ 0.25 |
| VCGY | 2.11 |
| DAYA | ≤ 0.25 |
| FAMT | ≤ 0.25 |
| LTTE | ≤ 0.25 |
| WTMK | ≤ 0.25 |
| FDEP | ≤ 0.25 |
| NHWI | ≤ 0.25 |
| EYKV | ≤ 0.25 |
| GKCD | ≤ 0.25 |
| VEQM | ≤ 0.25 |
| DRHK | ≤ 0.25 |
| YHWQ | ≤ 0.25 |
| FEHQ | ≤ 0.25 |
| YDIT | ≤ 0.25 |
| HNSA | ≤ 0.25 |
| LSWL | 3.46 |
| WPKM | ≤ 0.25 |
| RFYC | ≤ 0.25 |
| SLFN | ≤ 0.25 |

| Variant | enrichment ratio |
| --- | --- |
| PECL | ≤ 0.25 |
| IFQI | ≤ 0.25 |
| EHYP | ≤ 0.25 |
| LRLM | ≤ 0.25 |
| YRNA | ≤ 0.25 |
| RLPS | ≤ 0.25 |
| MGLM | 6.14 |
| FKPV | ≤ 0.25 |
| YGDI | ≤ 0.25 |
| SRKF | ≤ 0.25 |
| KDHR | ≤ 0.25 |
| IWNR | ≤ 0.25 |
| LMLN | ≤ 0.25 |
| VPFN | ≤ 0.25 |
| VKIQ | ≤ 0.25 |
| KRNL | ≤ 0.25 |
| AVYH | 0.253 |
| IQQL | ≤ 0.25 |
| SEQI | 7.02 |
| DFFF | ≤ 0.25 |
| SMSS | 7.62 |
| VYHD | ≤ 0.25 |
| GSIM | 11.6 |
| PGGV | ≤ 0.25 |

| Variant | enrichment ratio |
| --- | --- |
| MGTM | 13.6 |
| TRFL | ≤ 0.25 |
| KSEF | ≤ 0.25 |
| TMAP | ≤ 0.25 |
| MQLQ | 5.01 |
| AKYK | ≤ 0.25 |
| ARDA | ≤ 0.25 |
| EFPT | ≤ 0.25 |
| AYKG | ≤ 0.25 |
| QRTS | ≤ 0.25 |
| INQK | ≤ 0.25 |
| GWHT | ≤ 0.25 |
| LLRE | ≤ 0.25 |
| VGSP | ≤ 0.25 |
| EYSN | ≤ 0.25 |
| DKDR | ≤ 0.25 |
| FDTV | ≤ 0.25 |
| VPIW | ≤ 0.25 |
| NPPW | ≤ 0.25 |
| NFRW | ≤ 0.25 |
| LGLE | 0.798 |
| HKAM | ≤ 0.25 |
| DWNA | ≤ 0.25 |
| RIDM | ≤ 0.25 |

| Variant | enrichment ratio |
| --- | --- |
| FVHD | ≤ 0.25 |
| FTRF | ≤ 0.25 |
| TGAD | ≤ 0.25 |
| GHDV | ≤ 0.25 |
| EDVD | ≤ 0.25 |
| YATH | ≤ 0.25 |
| VCPM | ≤ 0.25 |
| MNNG | ≤ 0.25 |
| ENGF | ≤ 0.25 |
| LDQD | 0.634 |
| IWDE | ≤ 0.25 |
| NEHC | ≤ 0.25 |
| TSKQ | ≤ 0.25 |
| AVFQ | ≤ 0.25 |
| WEIE | ≤ 0.25 |
| TMKI | ≤ 0.25 |
| NTYR | ≤ 0.25 |
| NHTW | ≤ 0.25 |
| LIRC | ≤ 0.25 |
| EYIA | ≤ 0.25 |
| PDIK | ≤ 0.25 |
| VIAC | ≤ 0.25 |
| IVGM | ≤ 0.25 |
| MTHH | ≤ 0.25 |

| Variant | enrichment ratio |
| --- | --- |
| GRVF | ≤ 0.25 |
| WLNI | ≤ 0.25 |
| EQEL | ≤ 0.25 |
| EVKL | ≤ 0.25 |
| PDCT | ≤ 0.25 |
| SQIR | ≤ 0.25 |
| RLTG | ≤ 0.25 |
| SSDM | ≤ 0.25 |
| KAQY | ≤ 0.25 |
| LIFK | ≤ 0.25 |
| AICQ | 3.77 |
| QMTW | ≤ 0.25 |
| RKPR | ≤ 0.25 |
| SFRC | ≤ 0.25 |
| WLWV | ≤ 0.25 |
| MRQW | ≤ 0.25 |
| WPSH | ≤ 0.25 |
| ITDN | ≤ 0.25 |
| ADDV | ≤ 0.25 |
| FLCH | ≤ 0.25 |
| NGQV | ≤ 0.25 |
| NESH | ≤ 0.25 |
| GDMR | ≤ 0.25 |
| DYLR | ≤ 0.25 |

| Variant | enrichment ratio |
| --- | --- |
| YGKV | ≤ 0.25 |
| NRVQ | ≤ 0.25 |
| YAEP | ≤ 0.25 |
| IVIP | ≤ 0.25 |
| WPVN | ≤ 0.25 |
| HIMR | ≤ 0.25 |
| GPPI | ≤ 0.25 |
| DINS | ≤ 0.25 |
| FKNE | ≤ 0.25 |
| PNHS | ≤ 0.25 |
| FMDY | ≤ 0.25 |
| VQVC | ≤ 0.25 |
| IKWA | ≤ 0.25 |
| LSHR | ≤ 0.25 |
| FHKT | ≤ 0.25 |
| QVPV | ≤ 0.25 |
| QFLI | ≤ 0.25 |
| ECSH | ≤ 0.25 |
